Results on four molecules are retold here after patent US20230322953A1 (HARBOUR BIOMED SHANGHAI, published 2023).

Substitutions are numbered along the chain they refer to. Names may count otherwise.

Experiment [1] has as its target T1, human 4-1BB (tumor necrosis factor receptor superfamily member 9) (human, UniProt Q07011 24-255).
T1 construct: whole, on cells; also called hu 4-1BB; CD137
Kind of experiment: flow cytometry (FACS) on CHO-K1/hu 4-1BB cells. A general note: Flow cytometry measures light scatter and fluorescence of single cells or particles in a stream.

Experiment [2] has as its target T2, biotinylated human CTLA4-Fc protein (ACRO Biosystems, #CT4-H82F3) (human, UniProt P16410 36-161, biotinylated).
T2 construct: Bought protein; also called human CTLA4 protein
Kind of experiment: competition ELISA: coated human B7-1-Fc, biotinylated human CTLA4-Fc, Experiment 2.

Experiment [3] has as its target T3, human CTLA4 on CHO-K1/hCTLA4 cells (human, UniProt P16410 36-223).
T3 construct: whole, on cells; CHO-K1 cell line highly expressing human CTLA4; also called human CTLA4 cell
Put plainly: flow cytometry on CHO-K1/hCTLA4 cells, Experiment 2.

T1 sequence (Q07011 24-255): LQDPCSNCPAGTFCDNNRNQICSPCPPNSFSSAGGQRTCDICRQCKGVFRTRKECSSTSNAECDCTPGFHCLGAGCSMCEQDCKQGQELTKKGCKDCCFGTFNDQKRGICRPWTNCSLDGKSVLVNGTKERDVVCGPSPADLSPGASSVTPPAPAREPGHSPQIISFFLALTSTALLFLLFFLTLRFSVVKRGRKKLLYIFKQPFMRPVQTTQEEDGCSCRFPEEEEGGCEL

B1: Anti-4-1BB 79B10G8D4, hIgG4 (S228P) (antibody)
light: EFVMTQSPATLSVSPGERATLSCRASQSISSILAWYQQKPGQAPRLLIYGASTRATGIPARFSGSGSGTEFTLTISSLQSEDFAVYYCQQYYNWPLTFGGGTKVEIKRTVAAPSVFIFPPSDEQLKSGTASVVCLLNNFYPREAKVQWKVDNALQSGNSQESVTEQDSKDSTYSLSSTLTLSKADYEKHKVYACEVTHQGLSSPVTKSFNRGEC
heavy: QVQLQQWGAGLLKPSETLSLTCAVYGGSFSGYYWSWIRQPPGKGLEWIGEINHSGSTDSNPSLKGRVTFSVDTSKNQFSLKLNSVTAADTAVYYCARLTGPFDYWGQGTLVTVSSASTKGPSVFPLAPCSRSTSESTAALGCLVKDYFPEPVTVSWNSGALTSGVHTFPAVLQSSGLYSLSSVVTVPSSSLGTKTYTCNVDHKPSNTKVDKRV[human IgG4 Fc with S228P (EU numbers) not given here]
notes: hIgG4 (S228P); also called PR000197
With B1, in experiment [1], the concentration for a half-maximal effect (EC50) (commonly the concentration giving half of the maximal effect) is 0.673 nM and the “Maximum MFI” value is 15500 MFI.

B2: Anti-4-1BB 79B10G8D4 (H: N52Q; L: F2I), hIgG4 (S228P) (antibody)
light: B1 light with F2I
heavy: B1 heavy with N52Q
notes: hIgG4 (S228P); also called PR000448
Take B2: in experiment [1], the half-maximal effective concentration (EC50) was 0.947 nM and the “Maximum MFI” value is 8180 MFI.

B3: HER2xCTLA4 bispecific antibody molecule PR001590 (bispecific antibody, human IgG1, kappa)
light: EVQLVESGGGLIQPGGSLRLSCAVSGFTVSKNYMSWVRQAPGKGLEWVSVVYSGGSKTYADSVKGRFTISRDNSKNTLYLQMNSLRAEDTAVYYCARAVPHSPSSFDIWGQGTMVTVSSKLEPKSSDKTHTPPPPPASDIQMTQSPSSLSASVGDRVTITCKASQDVSIGVAWYQQKPGKAPKLLIYSASYRYTGVPSRFSGSGSGTDFTLTISSLQPEDFATYYCQQYYIYPYTFGQGTKVEIKRTVAAPSVFIFPPSDEQLKSGTASVVCLLNNFYPREAKVQWKVDNALQSGNSQESVTEQDSKDSTYSLSSTLTLSKADYEKHKVYACEVTHQGLSSPVTKSFNRGEC
heavy: EVQLVESGGGLIQPGGSLRLSCAVSGFTVSKNYMSWVRQAPGKGLEWVSVVYSGGSKTYADSVKGRFTISRDNSKNTLYLQMNSLRAEDTAVYYCARAVPHSPSSFDIWGQGTMVTVSSKLEPKSSDKTHTPPPPPRTEVQLVESGGGLVQPGGSLRLSCAASGFTFTDYTMDWVRQAPGKGLEWVADVNPNSGGSIYNQRFKGRFTLSVDRSKNTLYLQMNSLRAEDTAVYYCARNLGPSFYFDYWGQGTLVTVSS[human IgG1 constant region not given here]
notes: Structure 9 2xVH-IgG; PR000672 IgG (pertuzumab analog), PR000184 VH; first linker KL-H1_15-AS, second linker KL-H1_15-RT; Fc human IgG1
For B3, the half-inhibitory concentration (IC50) (usually the concentration that inhibits the measured activity by half) in experiment [2] was determined as 1.99 nM. In experiment [3], a half-maximal effect (EC50) was put at 5.44 nM and the “Maximum MFI” value worked out at 1050 MFI.

B4: HER2xCTLA4 bispecific antibody molecule PR001592 (bispecific antibody, human IgG1, kappa)
light: B3 light
heavy: EVQLVESGGGLIQPGGSLRLSCAVSGFTVSKNYMSWVRQAPGKGLEWVSVVYSGGSKTYADSVKGRFTISRDNSKNTLYLQMNSLRAEDTAVYYCARAVPHSPSSFDIWGQGTMVTVSSKLEPKSSDKTHTPPPPPRTEVQLVESGGGLVQPGGSLRLSCAASGFTFTDYTMDWVRQAPGKGLEWVADVNPNSGGSIYNQRFKGRFTLSVDRSKNTLYLQMNSLRAEDTAVYYCARNLGPSFYFDYWGQGTLVTVSSASTKGPSVFPLAPSSKSTSGGTAALGCLVKDYFPEPVTVSWNSGALTSGVHTFPAVLQSSGLYSLSSVVTVPSSSLGTQTYICNVNHKPSNTKVDKKV[human IgG1 Fc with changes not given here]
notes: Structure 9 2xVH-IgG; PR000672 IgG (pertuzumab analog), PR000184 VH; first linker KL-H1_15-AS, second linker KL-H1_15-RT; Fc human IgG1 (S239D, I332E)
B4 showed an IC50 in experiment [2] of 3.21 nM. For the same molecule, in experiment [3], the EC50 worked out at 10.4 nM and the “Maximum MFI” value turned out to be 1300 MFI.
